Screen size: about 48,000 compounds; about 450 (0.94%) were called active. Inconclusive results (about 19%) are left out. Calls follow the shape of the dose curve; as a rule, active = well fitted inhibition curve with a large enough effect; inconclusive = small, poorly fitted or top-dose-only effect; inactive = no such curve, though single readings can be large or run the other way. The list shows a part of the results.
Assay: Primary qHTS for Identification of Small Molecule Inhibitors of Huntingtin Promoter Activity; also: nearly all actives have a fitted effect of over 50% in size
Settings: HEK293 HTT promoter firefly luciferase reporter (activity 0% = vehicle and -100% = no light), 24 h; series mostly up to 57.5 µM; activity change, negative = inhibition: at the top concentration
In short: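 Firefly luciferase readout (Dual-Glo, 10 min RT) after 24 h, 37 °C compound exposure (final up to 57.5 uM) of HEK293 reporter cells cultured 24 h beforehand; PTC124 at 50 uM final as control inhibitor; activity scaled vehicle 0%, zero RLU -100%.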
Potency is read from the fitted curve at half-maximal effect.

Row | Structure (SMILES) | activity change, negative = inhibition | Potency
1 | Cc1ccc(N2CC3=C(C2=O)C(c2ccc(Br)cc2)NC(=O)N3C)cc1 (stereo not given) | inactive: 4.99% | –
2 | CC(C)c1ccc(NS(=O)(=O)c2ccc3[nH]cc(C(=O)NC4CCCC4)c(=O)c3c2)cc1 | inactive: 8.14% | –
3 | O=C1Cc2cc(S(=O)(=O)N3CCN(c4ccccc4)CC3)ccc2N1 | inactive: -14.9% | –
4 | CCOc1ccccc1-n1ccnc(NCc2ccc(F)cc2)c1=O | inactive: -19.5% | –
5 | Cc1cccc(NC(=O)Nc2nnc(N(C)C3CCCCC3)s2)c1C | inactive: -11.6% | –
6 | Cc1nn(CC(=O)NCc2ccco2)c(=O)c2cc3ccccc3n12 | inactive: -9.47% | –
7 | CCc1ccccc1N(C)C(=O)c1cn(CC(C)C)c(=O)c2cc(OC)c(OC)cc12 | inactive: -18.1% | –
8 | O=C(CCC(=O)N1Cc2ccccc2Oc2ncccc21)Nc1ccc(Cl)cc1 | inactive: -34.2% | –
9 | COc1ccc(-c2nn(CC(=O)NC3CCCC3)c3c2cnc2ccc(F)cc23)cc1 | inactive: 55.8% | –
10 | CC1CCN(S(=O)(=O)c2ccc3c(c2)N(CC(=O)NCc2ccccc2)C(=O)CO3)CC1 | inactive: -19.4% | –
11 | COC(=O)c1ccc(Cl)cc1NC(=O)N1CC=C(c2c[nH]c3ccccc23)CC1 | inactive: -28.9% | –
12 | O=C(Cn1ncc2c(=O)oc3ccccc3c21)Nc1cc(F)ccc1F | inactive: -16.6% | –
13 | O=C(CSc1nc2nccnc2c(=O)n1CCc1c[nH]c2ccccc12)Nc1ccccc1F | inactive: 1.64% | –
14 | Oc1ccccc1Nc1nc(-c2ccccc2)c2cc(Cl)ccc2n1 | inactive: -11.4% | –
15 | Cc1cccc(OCCCC(=O)Nc2sc3c(c2C(N)=O)CCC(C)C3)c1 (stereo not given) | inactive: -26% | –
16 | COc1ccc2c(CNCC(C)c3ccccc3)c(C(=O)O)n(Cc3ccc(F)cc3Cl)c2c1 (stereo not given) | inactive: -6.43% | –
17 | COc1ccc(/C=C(\C#N)c2nc(-c3cc(Cl)ccc3OC)cs2)cc1 | inactive: -7.38% | –
18 | COc1cc(OC)c(NC(=O)c2c(C)oc3ncn(C)c(=O)c23)cc1Cl | inactive: -6.89% | –
19 | CCOc1ccc(NC(=O)c2ccc(NC(=O)CCS(=O)(=O)c3cccs3)cc2)cc1 | inactive: -24.5% | –
20 | Cc1ccc(C2CC(=O)N(Cc3ccccc3F)c3c2c(C)nn3-c2nc(C)cc(C)n2)cc1 (stereo not given) | inactive: -22.3% | –

Row | Structure (SMILES) | activity change, negative = inhibition | Potency
21 | C[C@]12CCC(=O)C=C1CC[C@H]1[C@@H]3CC[C@](O)(C(=O)CO)[C@@]3(C)C[C@H](O)[C@@]12F | inactive: 8.72% | –
22 | CCn1cc(C(=O)N2CCN(c3cccc(Cl)c3)CC2)c(=O)c2cc(S(=O)(=O)N3CCOCC3)ccc21 | inactive: -0.416% | –
23 | Cc1ccc(Cc2nc3ccccc3nc2SCC(=O)N2CCc3ccccc32)cc1 | inactive: -7.24% | –
24 | CN(C)CCNC(=O)C1CCN(c2nc3ccccc3[nH]2)CC1 | inactive: 2.82% | –
25 | Cc1c(NC(=O)c2cc([N+](=O)[O-])ccc2N2CCOCC2)cccc1-c1nc2ccccc2o1 | inactive: -17.2% | –
26 | Cc1ccc(NC(=O)c2nc(S(C)(=O)=O)ncc2N(Cc2ccccc2)Cc2ccco2)c(C)c1 | inactive: -24.3% | –
27 | CNC[C@H](O)c1cccc(O)c1 | inactive | –
28 | Cc1nn(-c2ccc(F)cc2)c(-n2cccc2)c1C(=O)N1CCN(c2ccc(F)cc2)CC1 | – | active: 28.2 µM
29 | COc1ccc(NC(=O)c2nnn(Cc3ccccc3C)c2N)c(OC)c1 | inactive: -28% | –
30 | Cc1ccc(C(=O)Nc2c(-c3ccccc3)nc3ccccn23)cc1C | inactive: -7.59% | –
31 | O=C(Nc1cccc(C(=O)OCc2cc(=O)n3nc(C4CC4)sc3n2)c1)c1ccc(F)cc1 | inactive: 4.35% | –
32 | CC(=O)c1ccc(S(=O)(=O)N2CCC(Oc3ccc(-n4cnnn4)cc3)CC2)cc1 | inactive: 8.32% | –
33 | COc1ccc(S(=O)(=O)Nc2ccc(O)c(Sc3nc4ccccc4s3)c2)cc1 | inactive: -6.87% | –
34 | CCc1ccc(NC(=O)CN2C(=O)C(=O)c3ccccc32)cc1 | inactive: 11.6% | –
35 | O=C(Nc1cccc(Cl)c1)N1Cc2ccccc2Oc2ncccc21 | inactive: -10.3% | –
36 | CCCC(=O)NC1CC(=O)N(c2ccc3c(c2)OCCO3)C1 (stereo not given) | inactive: 1.14% | –
37 | O=C(O)[C@H]1O[C@H](Oc2cc3oc(-c4ccccc4)cc(=O)c3c(O)c2O)[C@H](O)[C@@H](O)[C@H]1O | inactive: 16.7% | –
38 | COc1ccccc1C1C(C(N)=O)=C(C)Nc2nc(SCc3ccccc3F)nn21 (stereo not given) | inactive: -4.89% | –
39 | Cc1c(C(=O)N(C)C)sc2c1c(=O)n(-c1ccc(Cl)c(Cl)c1)c(=O)n2Cc1ccc(F)cc1 | inactive: 2.62% | –
40 | OCc1ccc(-c2ccc(-c3ccc(CO)s3)o2)s1 | inactive: -1.28% | –

Row | Structure (SMILES) | activity change, negative = inhibition | Potency
41 | COc1ccc(NC(=O)CCS(=O)(=O)c2cc(Br)cc3c2N(C(C)=O)CC3)c(OC)c1 | inactive: -7.8% | –
42 | O=c1c(-c2ccc(O)cc2)coc2cc(O)cc(O)c12 | inactive | –
43 | CCOC(=O)Nc1ccc2c(c1)N(C(=O)CCN1CCOCC1)c1ccccc1S2 | inactive: -6.73% | –
44 | CCn1cc(C(=O)N(C)Cc2ccccc2)c(=O)c2cc(S(=O)(=O)N3CCCCC3)ccc21 | inactive: 67.1% [at 11.5 µM] | –
45 | Cc1cccc(N2CCN(C(=O)Cn3nc(C)c4sc5ccccc5c4c3=O)CC2C)c1 (stereo not given) | inactive: -11.8% | –
46 | COC(=O)C1=C(c2ccccc2)c2ccccc2S(=O)(=O)N1CC(=O)Nc1cc(C)ccc1C | inactive: -19.6% | –
47 | Cc1ccc(CN2C(=O)C3(SCC(=O)N3c3ccc(C)c(C)c3)c3ccccc32)cc1 (stereo not given) | inactive: -34.7% | –
48 | CCOC(=O)c1cccc(NC(=O)CCc2c(C)nc3c4cccnc4nn3c2C)c1 | inactive: -11.5% | –
49 | CCOC(=O)Cn1nc(N2CCN(c3ccc(F)cc3)CC2)ccc1=O | inactive: -12.1% | –
50 | Cc1cccc(N2CCN(c3c(CN4CCCC4)c(=O)oc4ccccc34)CC2)c1C | inactive: -9.25% | –
51 | Cc1c(C(=O)N2CCOCC2)oc2c1-c1nn(CC(=O)NCc3ccccc3)cc1CC2 | inactive: -25.3% | –
52 | CSc1ccc(Nc2nn(-c3ccc(OC(F)(F)F)cc3)nc2C(C)=O)cc1 | inactive: -5.57% | –
53 | Cn1c(=O)n(C)c2cc(CNCc3ccc(C(=O)O)cc3)ccc21 | inactive: -13.6% | –
54 | C[C@H](NC(=O)Cc1cc(F)cc(F)c1)C(=O)N[C@@H]1C(=O)N(C)c2ccccc2-c2ccccc21 | inactive: -1.35% | –
55 | CCOCCn1ccc2c(OCC(=O)Nc3cc(C(F)(F)F)ccc3Cl)cccc2c1=O | inactive: 0% | –
56 | Cc1ccc2c(c1)N(CC(=O)NCc1cccc(Cl)c1)C(=O)c1cccnc1O2 | inactive: -15.7% | –
57 | COc1ccccc1Cn1c(CNS(=O)(=O)c2c(C)cc(C)cc2C)nc2cccnc21 | inactive: -10.9% | –
58 | Cc1ccc(-n2nc(C)c3c(C)c(CCC(=O)NCc4cccc(Cl)c4)c(C)nc32)cc1C | inactive: -22.4% | –
59 | CCOCCCn1c(=N)c(S(=O)(=O)c2ccccc2)cc2c(=O)n3cc(C)ccc3nc21 | inactive: 4.08% | –
60 | CCn1cc(S(=O)(=O)c2ccccc2)c(=O)c2cc(F)c(N3CCCCCC3)cc21 | inactive: -15.8% | –

Reference: PubChem BioAssay AID1508623 (National Center for Advancing Translational Sciences (NCATS), 2021)
